Data as given in the supplement of paper PMC11417369.
This is one part of the list.

These sequences were tested on PfSIP2 AP2 domain 1 (GST-tagged) (assay: gcPBM binding intensity (ln(normalized median fluorescence intensity)); higher = stronger DNA binding).
In short: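 Binding intensity is defined as the maximum Masliner-normalised natural-log median intensity across replicate spots for either probe orientation. It was measured on an Agilent 4 × 180k array of primer-extended double-stranded 36-bp intergenic genomic probes and negative controls, to which GST-tagged P. falciparum DNA-binding domains made in E. coli were applied for 1 h in 1× PBS with 1% milk, 0.2 mg/ml BSA, 0.5% salmon testes DNA and 0.03% Triton X-100. Detection was by Alexa488 anti-GST antibody and scanning at 488 nm.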

“TGTTATTACTTTATATCATCTTAAAATAAGCATATT [CACACA_negctrl_site1501]” was tested. Which “gcPBM binding intensity (ln)” value did it give?
The value was 6.85.

Which “gcPBM binding intensity (ln)” value does the source give for “TTGAAAATACAAAATTGTACAAAGATTTAAATAAAA [XGTACX_site1182]” here?
The value was 6.83.

With “TGAAATAAATAATGCACACTCTACAGATATACGTAT [CACACA_site5270]” as the sequence, how does the “gcPBM binding intensity (ln)” value read?
Its value is 7.3.

Which “gcPBM binding intensity (ln)” value does the source give for “TATTTATTTATGTGTTGTACAAATAAATAGAGGTAT [XGTACX_site6408]” here?
Its value is 7.35.

How did the “gcPBM binding intensity (ln)” value turn out when “ATATATTAAAAACGATGTACCCTGAACTAAAAAAAA [XGTACX_site4986]” was run?
The value was 7.13.

Which “gcPBM binding intensity (ln)” value does the source give for “TTTATTTATTACAATTTTTGAATCACCACACAGTCG [GTGCAC_negctrl_site413]” here?
The value was 7.02.

Which “gcPBM binding intensity (ln)” value does the source give for “ATCATGTTATATACATGTACATATATATATATATAT [XGTACX_site1329]” here?
Its value is 9.66.

“TATATGAAAATGTTCATACACACATAAAAAAAAAAA [CACACA_site3237]” was tested. Which “gcPBM binding intensity (ln)” value did it give?
The value was 6.93.

For “TTAAAATAGATAAATAGTACTCTTTCCATTATGTAA [XGTACX_site6299]”, which “gcPBM binding intensity (ln)” value is on record?
The value was 6.67.

For “TATATAATAAGATATGCATGCACATGTAAAATGAAT [TGCATGCA_site499]”, which “gcPBM binding intensity (ln)” value is on record?
The value was 8.94.

For “ATAATGTTTTATAATACACACATTAGATATATAAAT [CACACA_site7834]”, which “gcPBM binding intensity (ln)” value is on record?
Its value is 6.91.

“TCATATAACACTTGATGTACAAGAATCCAAGTTGCA [XGTACX_site8758]” was tested. Which “gcPBM binding intensity (ln)” value did it give?
The value was 7.01.

For “ATATGTATAATATATATATATATATATATATATATA [CACACA_negctrl_site623]”, which “gcPBM binding intensity (ln)” value is on record?
The value was 9.23.

How did the “gcPBM binding intensity (ln)” value turn out when “TAAATACTTTTATGTACACACATATAGATATATATT [CACACA_site5416]” was run?
The value was 7.16.

For “GTGATAAATATTATATGTACATATAATATTTATGTC [XGTACX_site8023]”, which “gcPBM binding intensity (ln)” value is on record?
Its value is 7.16.

Which “gcPBM binding intensity (ln)” value does the source give for “TTGAACCTGATAAATACACACAATATATATTTTTTT [CACACA_site2173]” here?
The value was 6.92.

“TCAAAAACGAGACATGCATGCAATTCATTTTGATTC [TGCATGCA_site212]” was tested. Which “gcPBM binding intensity (ln)” value did it give?
The value was 6.6.

Which “gcPBM binding intensity (ln)” value does the source give for “CCATTCTTACTTTATTGTACTTGAAAATTTTTTTTA [XGTACX_site6160]” here?
The value was 7.29.

“TTTTTGTGCATTGATTGTACTTTCTAGGATTATTAA [XGTACX_site7070]” was tested. Which “gcPBM binding intensity (ln)” value did it give?
Its value is 8.15.

For “TTTATCCAATAATCTGGTACACAATAATCATTCATG [XGTACX_site6192]”, which “gcPBM binding intensity (ln)” value is on record?
The value was 6.84.

“TTTTTTTACTTAATAGTTCAACATATATCTCAATGT [CACACA_negctrl_site620]” was tested. Which “gcPBM binding intensity (ln)” value did it give?
Its value is 6.8.

How did the “gcPBM binding intensity (ln)” value turn out when “ATTCATATATACTTCACACACATTTTATCATTCAAA [CACACA_site2468]” was run?
Its value is 7.81.

With “TTTCTATTTATTTCAAGTACTAAAAATATATATAAC [XGTACX_site8203]” as the sequence, how does the “gcPBM binding intensity (ln)” value read?
Its value is 7.24.

“GAAATTATGTAAAAAAGTACTAACATACATATATAT [XGTACX_site1794]” was tested. Which “gcPBM binding intensity (ln)” value did it give?
Its value is 7.18.

“GAAAACGTCTTTAATAGTACACAGTTAAAAAATACA [XGTACX_site8976]” was tested. Which “gcPBM binding intensity (ln)” value did it give?
Its value is 7.08.

With “TTTTTTCATTATATATAGTATGCAAGTCAAATTAAT [GTGCAC_negctrl_site207]” as the sequence, how does the “gcPBM binding intensity (ln)” value read?
Its value is 7.05.

Which “gcPBM binding intensity (ln)” value does the source give for “TATATATATATATAAAGTACATATAATATATATTTG [XGTACX_site5412]” here?
The value was 9.15.

Which “gcPBM binding intensity (ln)” value does the source give for TTTTTTTTTTTGATGGTGCAATATATTAAATAGAAA here?
The value was 10.1.

With “AAAAAAAAAAAAAACATACACACATTGAACTTTTAT [CACACA_site3251]” as the sequence, how does the “gcPBM binding intensity (ln)” value read?
Its value is 7.15.

How did the “gcPBM binding intensity (ln)” value turn out when “ACAAAATTTACAAAATGTACAAAATTTACAAAATAT [XGTACX_site3542]” was run?
Its value is 6.91.

“CTATAAAAATATAATTGTACAAATTTTTATATCTTA [XGTACX_site7722]” was tested. Which “gcPBM binding intensity (ln)” value did it give?
Its value is 6.84.

For “AGAATCACCAAATATGTACACACCTTAACATGTTTA [CACACA_site2068]”, which “gcPBM binding intensity (ln)” value is on record?
Its value is 6.99.

For “ATATAACATAATGGATGTACATGTATAAATATAAAA [XGTACX_site8228]”, which “gcPBM binding intensity (ln)” value is on record?
Its value is 7.1.

“ATATATATGGTCATTTGTACATATCGTGAGAGCTGC [XGTACX_site4117]” was tested. Which “gcPBM binding intensity (ln)” value did it give?
Its value is 7.12.

“TATATTATAAATTAATGTACGTAATTTTTTTTTTTT [XGTACX_site2500]” was tested. Which “gcPBM binding intensity (ln)” value did it give?
The value was 6.99.

How did the “gcPBM binding intensity (ln)” value turn out when “TTTTTTTTTTACTTCACACATATACATTTATATTTA [CACACA_site4385]” was run?
Its value is 7.19.

For “TAAACATACAGATACACACACACACCCACAGAGACA [CACACA_site4429]”, which “gcPBM binding intensity (ln)” value is on record?
Its value is 7.19.

Which “gcPBM binding intensity (ln)” value does the source give for “CTTGGGCGTCATAATGAACACACAATTATATTATGA [CACACA_site9297]” here?
Its value is 6.71.

How did the “gcPBM binding intensity (ln)” value turn out when “TTATTACCATATTTTGTACACACATCTTTATCTCAA [CACACA_site9054]” was run?
The value was 7.23.

With “AAAATAATAAATAACGCATGCGTGTGCATTTTATTC [TGCATGCA_site898]” as the sequence, how does the “gcPBM binding intensity (ln)” value read?
Its value is 7.15.

For “ATATATACAAATCCTTTTTTCCAAGATGGAAAAAGA [CACACA_negctrl_site382]”, which “gcPBM binding intensity (ln)” value is on record?
The value was 6.84.

“ATTATATAATCTATATGTACATATATATATATATAT [XGTACX_site4970]” was tested. Which “gcPBM binding intensity (ln)” value did it give?
Its value is 9.69.

With “TATATATAAGCGCATGCACACGCAAAGGTATATAAA [CACACA_site8107]” as the sequence, how does the “gcPBM binding intensity (ln)” value read?
The value was 7.14.

Which “gcPBM binding intensity (ln)” value does the source give for “ATAATAATATTATTTTGTACATATGTGCTTATTTAT [XGTACX_site5540]” here?
Its value is 7.17.

For “TTTTGTCAACATTTTTATATTAGGTCTTGAACGATT [GTGCAC_negctrl_site72]”, which “gcPBM binding intensity (ln)” value is on record?
Its value is 6.9.
